Source: patent US20250214977A1, “STAT6 INHIBITORS AND USES THEREOF” (Kymera Therapeutics, Inc., priority 2024, published 2025)

Biological target: T1, biotinylated truncated STAT6 (123-632)-avi (Homo sapiens, UniProt P42226)
T1 sequence (P42226 123-632 limits assumed): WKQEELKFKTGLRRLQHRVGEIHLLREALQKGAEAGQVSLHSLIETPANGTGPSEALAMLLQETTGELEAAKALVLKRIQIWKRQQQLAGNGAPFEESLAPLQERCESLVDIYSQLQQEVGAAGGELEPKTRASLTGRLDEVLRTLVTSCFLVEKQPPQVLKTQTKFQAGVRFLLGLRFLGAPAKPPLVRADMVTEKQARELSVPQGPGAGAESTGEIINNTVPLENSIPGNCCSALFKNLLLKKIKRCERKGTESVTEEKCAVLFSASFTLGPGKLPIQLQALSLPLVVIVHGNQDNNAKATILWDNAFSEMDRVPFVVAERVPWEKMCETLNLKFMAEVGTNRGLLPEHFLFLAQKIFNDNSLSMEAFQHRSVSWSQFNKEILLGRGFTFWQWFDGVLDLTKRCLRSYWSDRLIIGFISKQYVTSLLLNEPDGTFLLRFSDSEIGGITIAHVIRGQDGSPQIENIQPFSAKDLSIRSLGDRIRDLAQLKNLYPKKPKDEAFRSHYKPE
Assay: Homogenous Time-Resolved Fluorescence (HTRF) binding assay
Details: 0.15 nM biotinylated truncated STAT6 (123-632)-avi, 20 nM fluorescein-labeled probe

Compound | IC50 (30 minutes at room temperature) [nM] | IC50 (30 minutes room temperature) [nM]
COc1ccncc1-c1cc(C2=CCCN(C(=O)CCn3ccnn3)C2)c(F)c2[nH]c(C(=O)N3CC=C(c4ncccc4OC)CC3)cc12 [Example I-452] | > 100000 | 
COc1cc(F)cnc1N1CCN(C(=O)c2cc3c(C4=CCC(F)(F)CC4)cc(C4=CCCN(C(=O)CCn5ccnn5)C4)c(F)c3[nH]2)CC1 [Example I-1158] | < 100 | 
COc1ccccc1-c1cc(C2=CCCN(C(=O)CCn3ccnn3)C2)c(F)c2[nH]c(C(=O)NC(C#N)c3ccccc3)cc12 (stereo not shown) [Example I-772] | > 100000 | 
COc1ccccc1-c1cc(C2=CCCN(C(=O)CCn3cccn3)C2)c(F)c2[nH]c(C(=O)N3CCN(c4cc5cc[nH]c5nc4C#N)CC3)cc12 [Example I-494] | > 100000 | 
O=C(CCn1ccnn1)N1CCCC(n2ccc3cc(-c4ncco4)ccc32)C1 (stereo not shown) [Example I-1305] |  | 10000 to 100000
COc1ccccc1N1CCN(C(=O)c2cc3c(-c4cccnc4OC)cc(C4=CCCN(C(=O)CCn5ccnn5)C4)c(F)c3[nH]2)CC1 [Example I-599] | < 100 | 
CCc1cc(C)ncc1-c1cc(C2=CCCN(C(=O)CCn3ccnn3)C2)c(F)c2[nH]c(C(=O)N3CCN(c4nccnc4OC)CC3)cc12 [Example I-519] | < 100 | 
CN(C)C(=O)c1cc2cc(C3=CCCN(C(=O)Cc4cccc5ccccc45)C3)ccc2o1 [Example I-294] | 10000 to 100000 | 
COc1ccccc1-c1cc(C2=CCCN(C(=O)CCn3ccnn3)C2)c(F)c2[nH]c(C(=O)N3CCN(c4ccc5c(c4)Nc4ccccc4CC5)CC3)cc12 [Example I-947] | 1000 to 10000 | 
CCc1ccncc1-c1cc(C2=CCCN(C(=O)CCn3ccc(C(N)=O)n3)C2)c(F)c2[nH]c(C(=O)N(C)C)cc12 [Example I-1231] |  | < 100
CN(C)Cc1cc2ccc(C3=CCCN(C(=O)CCn4ccnn4)C3)cc2[nH]1 [Example I-1310] |  | 10000 to 100000
O=C(CCn1ccnn1)N1CCC=C(c2ccc3oc(C(=O)N4CCn5ncnc5C4)cc3c2)C1 [Example I-1613] |  | 100 to 1000
COc1cc(F)cnc1N1CCN(C(=O)c2cc3c(-c4ccc(F)c(C)c4)cc(C4=CCCN(C(=O)CCn5ccnn5)C4)c(F)c3[nH]2)CC1 [Example I-676] | 100 to 1000 | 
CN(C)C(=O)c1cc2c(N3CCOCC3)cc(C3=CCCN(C(=O)CCn4ccnn4)C3)cc2[nH]1 [Example I-1639] |  | < 100
COc1ccccc1-c1cc(C2=CCCN(C(=O)CCn3ccnn3)C2)c(F)c2[nH]c(C(=O)N3CCC(=O)C3)cc12 [Example I-1031] | < 100 | 
CN(C)C(=O)c1cc2cc(C3=CCCN(C(=O)Cn4cncn4)C3)ccc2o1 [Example I-315] | 10000 to 100000 | 
COc1ccccc1N1CCN(C(=O)c2cc3c(-c4cnccc4OCF)cc(C4=CCCN(C(=O)CCn5ccnn5)C4)c(F)c3[nH]2)CC1 [Example I-405] | < 100 | 
COc1ccccc1-c1cc(C(=O)N2CCN(c3ncc(F)cc3OC)CC2)cc2cc(C3=CCCN(C(=O)CCn4ccnn4)C3)n(CC3CC3)c12 [Example I-506] | 10000 to 100000 | 
CN(C)C(=O)c1cc2ccc(C3=CCCN(C(=O)c4cn(C5CC5)nn4)C3)cc2[nH]1 [Example I-45] | 10000 to 100000 | 
CN(C)C(=O)c1cc2cc(C3=CCCN(C(=O)C4Cc5c(cccc5C5CCNCC5)CN4C=O)C3)ccc2o1 (stereo not shown) [Example I-181] | 10000 to 100000 | 
CCc1ccncc1-c1cc(C2=CCCN(C(=O)CC(=O)O)C2)c(F)c2[nH]c(C(=O)N3Cc4cnn(CC)c4C3)cc12 [Example I-787] | < 100 | 
COc1cc2[nH]cnc2cc1-c1cc(C2=CCCN(C(=O)CCn3ccnn3)C2)cc2[nH]c(C(=O)N(C)C)cc12 [Example I-1657] |  | < 100

Compound | IC50 (30 minutes at room temperature) [nM] | IC50 (30 minutes room temperature) [nM]
CN(C)C(=O)c1cc2cc(C3=CCCN(C(=O)CCn4ccnn4)C3)cc(-c3ccc(C(=O)N4CCCC4)cc3)c2o1 [Example I-1614] |  | < 100
Cc1ccc(-c2cc(C3=CCCN(C(=O)CCn4ccnn4)C3)cc3cc(C(=O)N(C)C)oc23)cn1 [Example I-1084] | < 100 | 
CC#Cc1cc(-c2cc(C3=CCCN(C(=O)CCn4ccnn4)C3)c(F)c3[nH]c(C(=O)N4CCN(c5ncc(F)cc5OC)CC4)cc23)ccn1 [Example I-634] | < 100 | 
COc1cnccc1-c1cc(C2=CCCN(C(C)=O)C2)c(F)c2[nH]c(C(=O)N3CCN(c4ncc(F)cc4OC)CC3)cc12 [Example I-697] | > 100000 | 
Cc1cc(C)c(-c2cc(C3=CCCN(C(=O)CCn4ccnn4)C3)cc3cc(C(=O)N(C)C)oc23)cc1C [Example I-856] | < 100 | 
COc1ccccc1-c1cc(C2=CCCN(C(=O)CCn3ccnn3)C2)c(F)c2[nH]c(C(=O)N3CCN(C)C[C@@H]3C)cc12 [Example I-1395] |  | < 100
CC(=O)N1CCC=C(c2cc(-c3cc4ccccc4[nH]3)c3cc(C(=O)N(C)C)[nH]c3c2F)C1 [Example I-1591] |  | 100 to 1000
Cc1cc(-c2cc3cc(C4=CCCN(C(=O)CCn5ccnn5)C4)ccc3o2)ccc1F [Example I-1280] |  | 10000 to 100000
CCc1nc(C)ccc1-c1cc(C(=O)N2CCN(c3ncc(F)cc3OC)CC2)cc2cc(C3=CCCN(C(=O)CC(=O)O)C3)n(CC3CC3)c12 [Example I-789, 3-(3-(1—(Cyclopropylmethyl)-7-(2-ethyl-6-methylpyridin-3-yl)-5-(4-(5-fluoro-3-methoxypyridin-2-yl)piperazine-1-carbonyl)-1H-indol-2-yl)-5,6-dihydropyridin-1(2H)-yl)-3-oxopropanoic acid] | < 100 | 
CN(C)C(=O)c1cc2ccc(C3=CCCN(C(=O)Cn4cncn4)C3)cc2[nH]1 [Example I-36] | 10000 to 100000 | 
CC(=O)N1CCC=C(c2cc(-c3ccnc(N4CCNCC4)c3)c3cc(C(=O)N(C)C)[nH]c3c2F)C1 [Example I-1497] |  | 100 to 1000
CCc1ccncc1-c1cc(C2CCCN(S(C)(=O)=O)C2)c(F)c2[nH]c(C(=O)N3Cc4cnn(CC)c4C3)cc12 (stereo not shown) [Example I-1334] |  | 10000 to 100000
CN(C(=O)c1cc2c(-c3cncnc3C3CC3)cc(C3=CCCN(C(=O)CCn4ccnn4)C3)c(F)c2[nH]1)C1CC1 [Example I-1043] | > 100000 | 
CCC1=C(c2cc(C3=CCCN(C(=O)CCn4ccnn4)C3)c(F)c3[nH]c(C(=O)N4CCN(c5ncc(F)cc5OC)CC4)cc23)CNCC1 [Example I-743] | < 100 | 
CN(C)C(=O)c1cc2c(-c3ccccn3)cc(C3=CCCN(C(=O)CCn4ccnn4)C3)cc2[nH]1 [Example I-1665] |  | < 100
CCc1cc(C)ncc1-c1cc(C2=CCCN(C(=O)CCn3ccnn3)C2)c(F)c2[nH]c(C(=O)N3Cc4cnn(C)c4C3)cc12 [Example I-531] | < 100 | 
(S)-1-(5-(7-fluoro-2-(4-(5-fluoro-3-methoxypyridin-2-yl)piperazine-1-carbonyl)-4-(1-methylpyrrolidin-3-yl)-1H-indol-6-yl)-3,6-dihydropyridin-1(2H)-yl)-3-(1H-1,2,3-triazol-1-yl)propan-1-one [Example I-811] | < 100 | 
COC(=O)C1CCC(c2ccc3oc(C(=O)N(C)C)cc3c2)CN1C(=O)CCn1ccnn1 (stereo not shown) [Example I-150] | 10000 to 100000 | 
COc1ccccc1-c1cc(C2=CCCN(C(=O)CCn3ccnn3)C2)c(F)c2[nH]c(C(=O)N3CCN(c4ncc(C5CC5)cc4OC4CC4)CC3)cc12 [Example I-413] | 100 to 1000 | 
COc1c(F)cc(F)cc1-c1cc(C2=CCCN(C(=O)CCn3ccnn3)C2)c(F)c2[nH]c(C(=O)N3CCN(c4ncccc4OC4CC4)CC3)cc12 [Example I-597] | < 100 | 
CC(=O)N1CCC=C(c2cc(-c3ccc(C)nc3)c3cc(C(=O)N(C)C)[nH]c3c2F)C1 [Example I-885] | 100 to 1000 | 
